# Measured values published in article PMC4336329 (PLoS ONE, 2015).
# The campaign covered roughly 310,000 compounds. About 2,200 (0.71%) showed an effect of 50% or more. The effect is printed as a negative number. This is one part of the list.
# Molecular target: human ether-à-go-go-related gene (hERG) potassium channel (human, UniProt Q12809)
# Test: primary screen, population patch clamp on CHO cells stably expressing hERG
# Sequence of human ether-à-go-go-related gene (hERG) potassium channel (Q12809 whole entry, looked up): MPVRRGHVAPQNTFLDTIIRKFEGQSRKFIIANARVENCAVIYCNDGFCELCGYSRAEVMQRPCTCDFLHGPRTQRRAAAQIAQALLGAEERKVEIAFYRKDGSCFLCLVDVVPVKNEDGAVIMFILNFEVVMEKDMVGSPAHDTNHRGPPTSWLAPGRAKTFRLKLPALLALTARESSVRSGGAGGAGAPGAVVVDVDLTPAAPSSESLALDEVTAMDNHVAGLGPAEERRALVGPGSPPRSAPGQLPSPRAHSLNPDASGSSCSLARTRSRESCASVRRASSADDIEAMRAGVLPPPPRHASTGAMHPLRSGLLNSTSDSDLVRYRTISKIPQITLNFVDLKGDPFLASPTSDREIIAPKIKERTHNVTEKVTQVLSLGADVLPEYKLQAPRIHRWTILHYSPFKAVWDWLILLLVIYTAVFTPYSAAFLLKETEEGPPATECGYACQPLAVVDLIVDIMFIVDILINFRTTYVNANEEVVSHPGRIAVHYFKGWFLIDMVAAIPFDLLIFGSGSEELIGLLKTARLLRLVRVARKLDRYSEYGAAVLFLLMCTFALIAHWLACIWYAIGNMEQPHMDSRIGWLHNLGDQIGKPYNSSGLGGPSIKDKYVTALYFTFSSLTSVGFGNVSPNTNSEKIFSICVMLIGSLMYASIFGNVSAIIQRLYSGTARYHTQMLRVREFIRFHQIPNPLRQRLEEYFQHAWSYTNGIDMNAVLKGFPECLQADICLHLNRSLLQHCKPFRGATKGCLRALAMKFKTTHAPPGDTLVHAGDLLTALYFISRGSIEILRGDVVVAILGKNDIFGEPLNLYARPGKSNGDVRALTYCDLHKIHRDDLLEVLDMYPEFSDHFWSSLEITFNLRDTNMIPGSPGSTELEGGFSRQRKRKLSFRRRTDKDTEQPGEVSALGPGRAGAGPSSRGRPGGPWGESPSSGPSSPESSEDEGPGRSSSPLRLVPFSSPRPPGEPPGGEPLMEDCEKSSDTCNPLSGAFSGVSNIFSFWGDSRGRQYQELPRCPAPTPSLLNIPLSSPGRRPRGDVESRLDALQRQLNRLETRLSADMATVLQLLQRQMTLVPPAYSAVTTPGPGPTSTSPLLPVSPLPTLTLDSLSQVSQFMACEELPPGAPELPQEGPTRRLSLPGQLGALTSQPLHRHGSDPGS
row,Structure (SMILES),"hERG current change (%, negative = inhibition) at 1uM"
1,CSc1nc(N)nc(SCC(=O)Nc2ccc(Cl)cc2)c1C#N,-5.11%
2,O=C(NC(=S)Nc1nc(-c2cccc3ccccc23)cs1)c1cc2ccccc2o1,3.65%
3,CCC[C@@H]1CCCC/C=C\CCCC(=O)OCCN1C(=O)OC(C)(C)C,15.4%
4,Cc1ccc(S(=O)(=O)N2CCCC(C(=O)NCC(C)C)C2)cc1 (centres unmarked),10.9%
5,COc1cc(C2C3=C(CC(c4ccco4)CC3=O)Nc3ccccc3N2C(C)=O)cc(OC)c1OC (centres unmarked),6.46%
6,O=S(=O)(Nc1ccc2c(c1)OCCO2)c1cccs1,14.4%
7,CN(NC(=O)c1ccc(Cl)cc1)c1cccc(Cl)n1,2.41%
8,CC12CC[C@H]3[C@@H](CCC4(O)C[C@H](O)CCC34/C=N/NC(=O)Cc3ccccc3)C1(O)CCC2C1=CC(=O)OC1 (some centres unmarked),12.4%
9,Cc1cccc([N+](=O)[O-])c1NC(=O)CSc1nnc2ccccn12,1.83%
10,Cc1ccc(C(=O)NCc2nnc(SCC(=O)Nc3ccccc3)n2C)cc1,2.07%
11,COc1cc(S(=O)(=O)N2CCCCCC2)c(OC)cc1Br,8.86%
12,Cc1ccc(CN2C(=O)CCC2C(=O)NCCN2CCN(c3cccc(Cl)c3)CC2)cc1 (centres unmarked),0.186%
13,COc1ccc(-c2nc(C)ncc2-c2ccccc2)c(O)c1,14%
14,CNc1oc(-c2ccccc2F)nc1S(=O)(=O)c1ccc(C)cc1,12.3%
15,CCc1cc2c(SCC(=O)N3CC(=O)Nc4ccccc43)ncnc2s1,2.28%
16,Cn1c(Nc2cccc(Cl)c2)nc2ccccc21,18.2%
17,CCCCOc1ccc(/C=C/C(=O)OCC(=O)c2c(N)n(C)c(=O)n(C)c2=O)cc1OCC,9.43%
18,O=c1c2c(nc3n1CCCCC3)-c1ccccc1CC21CCCC1,-9.28%
19,O=C(Nc1ccc(Cn2cccn2)cc1)c1ccc(COc2ccc(Br)cc2)cc1,8.95%
20,O=C(CN1CCCCC1)Nc1nnc(-c2ccccc2)s1,-1.12%
21,O=C(CSC1=Nc2ccccc2C2=NC(c3ccccc3)C(=O)N12)NC1CCCCC1 (centres unmarked),3.01%
22,CC(=O)Nc1ccc(S(=O)(=O)N2CC(=O)NC(=O)C2)cc1,16.1%

row,Structure (SMILES),"hERG current change (%, negative = inhibition) at 1uM"
1,Cc1ccc(C)n1-c1cccc(C(=O)Nc2ccccc2)c1,5.12%
2,COc1ccccc1CNC(=O)CCn1c(=O)oc2ccccc21,10.4%
3,COc1ccc2c(c1)[nH]c1c(=O)n(/N=C/c3ccc(OC)c(CN4CCCC4)c3)cnc12,-29.6%
4,Oc1ccc(/C=N/NC2=NCCCCC2)c(O)c1,1.62%
5,CNC(=S)N(CCc1c(C)[nH]c2ccccc12)Cc1ccco1,6.17%
6,C/C=C/C1=CC(=O)C[C@H](c2ccc(Cl)cc2)C1,12.4%
7,CCc1nnc(NC(=O)CSc2nnc(-c3c[nH]c4ccccc34)n2C)s1,2.77%
8,Cc1cc(C(=O)OCC(=O)Nc2cccnc2Cl)c2ccccc2n1,5.62%
9,CCOC(=O)N1CCN(c2nc3ccccc3n3cnnc23)CC1,8.8%
10,CC(C)CNC(=O)C(=O)Nc1cc2c3c(c1)C(C)C(=O)N3CCC2 (centres unmarked),6.51%
11,Cc1cc(C)c2nncn2n1,13.2%
12,C=CCOC(=O)C1=C(C)Nc2nnnn2C1c1cccc(OC)c1OC (centres unmarked),1.54%
13,Cc1ccc(N(CC(O)Cn2c3ccccc3c3ccccc32)S(C)(=O)=O)cc1 (centres unmarked),11%
14,Cc1ccc(S(=O)(=O)N2C(=O)CCC2C(=O)N2CCCCC2)cc1 (centres unmarked),11.2%
15,Cc1ccc(CN2C(=O)C(Cc3ccccc3)Nc3ncnc(N4CCCCC4)c32)cc1.O=C(O)C(F)(F)F (centres unmarked),12.5%
16,CN1CCC(N(C)C(=O)/C=C/c2cn(-c3ccccc3)nc2-c2cccs2)CC1.Cl,-3.86%
17,Cc1cccc(CS(=O)(=O)Cc2ccc(C(=O)NCCc3ccccc3)o2)c1,11%
18,Cc1ccc(S(=O)(=O)N2CCCCC2)cc1C(=O)N(CCc1ccccc1)Cc1ccccc1,12.2%
19,COC(=O)[C@@H]1C[C@H]2CC[C@H](O)C[C@H]2N1Cc1ccc(-c2ccccc2)cc1,18%
20,CCC(C)(C)NC(=O)CN(C(=O)CCC(=O)Nc1cc(C)ccn1)c1ccc2c(c1)OCCO2,10.6%
21,CC(C)[N+]1(C)[C@@H]2CC[C@@H]1CC(OC(=O)C(CO)c1ccccc1)C2.[Br-] (some centres unmarked),8.36%
22,COc1cc2nc(SCC(=O)NCc3ccco3)n(Cc3ccc(Cl)cc3)c(=O)c2cc1OC,6.06%

row,Structure (SMILES),"hERG current change (%, negative = inhibition) at 1uM"
1,Fc1ccc(CSc2ccc3nnc(-c4ccccn4)n3n2)cc1,-92.9%
2,Cc1ccccc1OCC(O)Cn1c(=N)n(Cc2ccccc2)c2ccccc21.Cl (centres unmarked),-48.4%
3,COc1cc(NC(=O)CCS(=O)(=O)c2ccc3nc(C)sc3c2)cc(OC)c1OC,15.8%
4,Cc1ccc(NC(=S)Nc2cccc(-c3n[nH]c(=S)o3)c2)cc1,17.7%
5,COc1ccccc1C(C[N+](=O)[O-])c1c[nH]c2ccccc12 (centres unmarked),6.53%
6,CC(=O)Nc1ccc(OCc2nnc(-c3ccccc3)o2)cc1,4.98%
7,Cc1cccc2cc(C(c3nnnn3Cc3ccc4c(c3)OCO4)N3CCCC3)c(=O)[nH]c12 (centres unmarked),2.16%
8,Cn1ncc([N+](=O)[O-])c1C(=O)NC1CCCCC1,9.72%
9,Cc1ccc(S(=O)(=O)N2CCN(C(=O)Cc3ccc4c(c3)OCCO4)CC2)cc1C,5.37%
10,CN(CC(=O)Nc1ccc(OC(F)(F)F)cc1)C(=O)Cc1c(Cl)cccc1Cl,8.07%
11,COC(=O)CNC(=O)c1cccc(F)c1,8.31%
12,COc1ccc([N+](=O)[O-])cc1NC(=O)c1ccc(C)o1,7.4%
13,CCSc1nnc(-c2ccncc2)n1Cc1ccccc1,-7.48%
14,O=C(Sc1ccccc1)c1cccc(Cn2cc(C(F)(F)F)ccc2=O)c1,5.52%
15,COc1ccc(-n2nc(C(=O)NCC(=O)NCCC3=CCCCC3)c3ccccc3c2=O)cc1OC,14.2%
16,O=C(c1cc(-c2ccc3c(c2)OCO3)on1)N1CCN(c2ccccc2)CC1,2.88%
17,CCOc1ccccc1N1CCN(CC(O)COC2CCCc3ccccc32)CC1 (centres unmarked),-29.8%
18,COC(=O)/C(C#N)=C/c1c(Oc2cccc(C)c2C)nc2ccccn2c1=O,-1.77%
19,O=C(NCCc1ccccc1)C1CCN(C(=O)N2CCOc3ccccc32)CC1,4.98%
20,CCOC(=O)CSc1nc(CC)nc2ccccc12,4.2%
21,COc1ccc(CCNC(=O)C2=CCN(S(=O)(=O)c3ccc(F)cc3)CC2)cc1OC,3.59%
22,Cn1nc(C(C)(C)C)cc1NC(=O)Nc1ccc(F)cc1F,12.9%

row,Structure (SMILES),"hERG current change (%, negative = inhibition) at 1uM"
1,O=C(c1ccccc1)N1CCN(c2ncnc3sc4c(c23)CCC4)CC1,-28.9%
2,Cc1ccc(OC(=O)CCC(=O)OCCCC(F)(F)C(F)(F)F)cc1,3.12%
3,COc1ccc(S(=O)Cc2ccc(C(=O)N3CCN(c4cccc(C)c4C)CC3)o2)cc1 (centres unmarked),7.5%
4,Cc1ccc(-c2nc(CS(=O)CC(=O)NCCCN3CCN(Cc4ccccc4)CC3)c(C)o2)cc1 (centres unmarked),-4.76%
5,Cc1ccc(CC(=O)NCC2CCCCC2)cc1,12.5%
6,Cc1ccc2c(c1)c1nc3ccccc3nc1n2C,12.3%
7,Cc1c([C@@H]2C[C@H]3CN(Cc4cccc(Cl)c4)C(=O)[C@]34CCCN24)cnn1C,-18.2%
8,Cc1cc(Br)ccc1OCCCCNC(C)(C)C.O=C(O)C(=O)O,-7.77%
9,Nc1nsc2ccccc12,14.3%
10,O=P(c1ccccc1)(c1ccccc1)N(c1ccccc1)c1ccccc1,11.8%
11,CC(C)Cn1c(N)c(C(=O)COC(=O)c2cnc(Cl)c(Cl)c2)c(=O)n(C)c1=O,-5.44%
12,Cc1cccc(N2C(=O)C3CCCN3C2=S)c1 (centres unmarked),10.8%
13,O=C(CNC(=O)c1ccc(Br)o1)NCC1CCCCC1,5.83%
14,COc1ccc(CCn2c(-c3cc([N+](=O)[O-])cc([N+](=O)[O-])c3)nc3nc4ccccc4nc32)cc1OC,1.88%
15,CC1CCCN(C(=O)CN2C(=O)c3ccccc3S2(=O)=O)C1 (centres unmarked),13.2%
16,O=C(c1c[nH]c2ccc(S(=O)(=O)N3CCOCC3)cc2c1=O)N1CCC2(CC1)OCCO2,9.73%
17,NS(=O)(=O)c1ccc(CCNC(=O)c2ccc[nH]c2=S)cc1,11.6%
18,O=C(COC(=O)CCSc1ccc(Cl)cc1)NCCc1ccccc1,12.9%
19,Cc1ccnc(NC(=O)CCCNC(=O)c2ccc(Cl)cc2)c1,16.3%
20,N=c1c(C(=O)NCCc2ccccc2)cc2c(=O)n3ccccc3nc2n1Cc1ccco1,-67.5%
